# Experimental data as given in PubChem BioAssay AID925 (National Center for Advancing Translational Sciences (NCATS), 2007).
# The whole screen tested about 65,000 compounds, of which about 40 (0.06%) were called active. This list was built around the results that the source calls inconclusive (neither active nor inactive); the mix of calls is not that of the screen. Calls follow the shape of the dose curve; as a rule, active = well fitted activation curve with a large enough effect; inconclusive = small, poorly fitted or top-dose-only effect; inactive = flat fitted curve, though single readings scatter. Potencies of inconclusive entries are left out as doubtful fits.
# Experiment: qHTS Assay for Modulators of Hemoglobin Beta Chain Splicing; as to activation: 0% is about no effect
# Conditions: HBB splicing reporter cell assay, EGFP reporter with mutant IVS2-654 intron; Potency: activation; activation: at 46.1 µM (top of the series), normalised to 500 nM splice-correcting PNA
# Text: NIH Chemical Genomics Center [NCGC]
# NIH Molecular Libraries Screening Centers Network [MLSCN]
# PI Name: Dr. Ryszard Kole
# Modulation of Alternative Splicing as Therapy
# Abnormal splicing is associated with a number of diseases, including cancer and genetic diseases such as cystic fibrosis, muscular dystrophy and beta-thalassemia. Alteration of disease associated splicing patterns provides a promising target for treatment. […] Mutations in the second intron of the beta-globin gene at positions are clinically relevant and cause mis-splicing which results in an out of frame gene product.
# EGFP-654 and 705 HeLa Cells as screen system.
# HeLa cell lines were stably transfected with a construct in which the EGFP (enhanced green fluorescent protein) cDNA was interrupted by the second intron of the beta-globin gene (IVS2-654). The ISV2 intron contains mutations which cause mis-splicing of EGFP and premature termination of EGFP which results in a nonfluorescent protein product. […] Expression of the transgene was driven by the CMV promoter. We concluded that a low molecular weight compound, which restored correct splicing of intron 2 would also generate functional EGFP protein, resulting in a fluorescent signal. Thus, the HeLa cells that express the EGFP-654 construct can be used for high throughput screening of a chemical library.
# NCGC Assay Protocol Summary:
# High Throughput Screening. Freshly thawed HeLa EGFP-654 cells were seeded in 5 ul of optimem media (Invitrogen) containing 2 % fetal calf serum (Hyclone) and 1x penicillin/streptomycin (Invitrogen) at a concentration of 500 cells per well in 1536-well plates. Cells were incubated overnight at 37C in 5% CO2. The next day, cells were treated with DMSO, 500 nM antisense ISV2 654 PNA control oligo, or library compound and allowed to grow at 37C in 5% CO2 for 2 days. The PNA oligo blocked the mutation site in the intron and allowed proper (wild type) splicing to occur, resulting in full length EGFP expression and also allowed for optimization of the assay parameters. Plates were read in the Acumen Explorer (TTP Labtech) using 488 nm laser excitation and 500-520 nm emission PMT filter in a 1 x […] capture mode. Fluorescnet Fluorescent objects ranging in size from […] were measured and the total peak GFP intensity for each well was used for data analysis.
# Keywords: Thalassemia, beta-thalassemia, beta-globin, EGFP, ISV2 654, ISV2 705, SSO, PNA, antisense, splicing, MLSMR, MLSCN, NIH Roadmap, qHTS, NCGC
# Potency is read from the fitted curve at half-maximal effect.
SMILES,activation,Potency
CCNc1ncc2nc(-c3cc(F)cc(F)c3)c(=O)n(CCc3ccccc3)c2n1,inconclusive: 15.4% [activator],–
CCNc1ncc2nc(-c3cn(C)c4ccccc34)c(=O)n(-c3ccc(OC)cc3)c2n1,inconclusive: 17.9% [activator],–
Nc1nc2n[nH]nc2c(=O)[nH]1,–,active: 0.794 µM
CC(=O)[C@@]1(O)Cc2c(O)c3c(c(O)c2[C@H](O[C@H]2C[C@H](N)[C@H](O)[C@H](C)O2)C1)C(=O)c1ccccc1C3=O,–,active: 12.6 µM
COc1ccccc1N1CCN(c2nc(C)nc3c2oc2ccccc23)CC1,"inactive: -3.72% [at 0.369 µM, normalised to 500 nM splice-correcting PNA]",–
O=C(O)c1c(Br)c(Br)c(Br)c(Br)c1C1c2ccc(O)cc2Oc2cc(O)ccc21,–,"inconclusive [activator, single point]"
CCOC(=O)c1c(NC(=O)CSc2nnc(C)s2)sc2c1CCN(C)C2,–,"inconclusive [activator, single point]"
COc1cccc(Nc2ncc3nc(-c4cc(F)cc(F)c4)c(=O)n(CCC#N)c3n2)c1,–,"inconclusive [activator, single point]"
CC(=C1C2C=CC1C1C(=O)NC(=O)C21)c1ccccc1 (stereo unspecified),–,active: 15.8 µM
C=CCOn1c(=O)c(C)[n+]([O-])c2ccccc21,–,"inconclusive [activator, single point]"
O=c1c[n+]([O-])c2ccccc2n1OCc1ccccn1,inconclusive: 12.4% [activator],–
CC(=O)c1sc(NC(=O)C2(F)C(F)(F)C(F)(F)C(F)(F)C(F)(F)C2(F)F)nc1C,–,inactive
COc1ccccc1-c1nc(S(=O)(=O)c2ccc(Cl)cc2)c(N(C)C)o1,–,inactive
CCOC(=O)N1CCN(c2nc3ccccc3nc2C(C#N)C(=O)NCCc2ccccc2)CC1 (stereo unspecified),–,"inconclusive [activator, single point]"
Cn1cc(-c2nc3cncnc3n(-c3ccccc3)c2=O)c2ccccc21,–,"inconclusive [activator, partial curve]"
O=C(CNS(=O)(=O)c1ccc(F)cc1)N1CCN(c2ccc(F)cc2)CC1,–,"inconclusive [activator, single point]"
COC(=O)CCC(=O)Oc1ccc(OC(=O)CCC(=O)OC)cc1,inconclusive: 13.6% [activator],–
Cc1c2c(nc3c(C(=O)NC4CC4)cnn13)CCCC2,–,inactive
CN(C)c1ccc(N=Cc2nc(-c3ccccc3)oc2O)cc1,–,"inconclusive [activator, single point]"
NC1=NC(S)C2N=CN=C2N1 (stereo unspecified),–,"inconclusive [activator, full curve]"
Cc1ccc(-c2nn(C)c(=O)c3ccccc23)cc1CNS(C)(=O)=O,inconclusive: 15.5% [activator],–
c1ccc(-c2noc(-c3cccc4ccccc34)n2)nc1,–,inactive
CCCCOC(=O)c1ccc(NC(=O)C2CCCO2)cc1 (stereo unspecified),inconclusive: 15.8% [activator],–
S=C1N[C@H](c2ccccc2)N[C@H](c2ccccc2)S1,"inactive: -0.0977% [at 9.22 µM, normalised to 500 nM splice-correcting PNA]",–

SMILES,activation,Potency
COc1cccc(Nc2ncc3nc(-c4ccc(F)cc4)c(=O)n(CCC#N)c3n2)c1,–,"inconclusive [activator, partial curve]"
Cc1cccc2cc(CN(Cc3nnnn3Cc3ccco3)C3CCCC3)c3nnnn3c12,–,inactive
O=C(NCc1cccnc1)[C@@H]1[C@@H](C(=O)O)[C@H]2CC[C@@H]1O2,"inactive: 6.12% [at 9.22 µM, normalised to 500 nM splice-correcting PNA]",–
CCNc1ncc2nc(-c3ccc(OC)cc3)c(=O)n(-c3ccc(OC)cc3)c2n1,–,"inconclusive [activator, partial curve]"
O=C(O)CS(=O)c1ccc2c3c(cccc13)C(=O)c1ccccc1-2 (stereo unspecified),–,"inconclusive [activator, single point]"
Nc1nc(=S)c2ncn([C@H]3O[C@@H](CO)[C@@H](O)[C@@H]3O)c2[nH]1,–,"inconclusive [activator, full curve]"
CCN(CC)c1ccc2c(c1)OC(N)=C(C#N)C2c1cccnc1 (stereo unspecified),–,"inconclusive [activator, single point]"
Cc1nc(NCC2CCCO2)nc2c1C(=O)CC(C)C2 (stereo unspecified),inconclusive: 14.1% [activator],–
c1ccc(CNc2nc(-c3ccoc3)nc3ccccc23)cc1,inconclusive: 12.1% [activator],–
C=CCn1c(NC(=O)c2ccccc2)c(C#N)c2nc3ccccc3nc21,–,active: 25.1 µM
CCNc1ncc2nc(-c3cn(C)c4ccccc34)c(=O)n(Cc3cccc(OC)c3)c2n1,–,inactive
COc1ccc(-c2nc3cnc(Nc4cccc(OC)c4)nc3n(C[C@H]3CCCO3)c2=O)cc1,–,"inconclusive [activator, single point]"
Cc1nn(CC(=O)Nc2ccccc2)c(=O)c2ccccc12,–,inactive
Cc1sc2nc3c4ccccc4c(NCc4ccco4)nn3c(=O)c2c1C,inconclusive: 14.7% [activator],–
CCc1ccc(C(=O)CSC2=C(C#N)C(c3ccco3)C(C(C)=O)=C(C)N2)cc1 (stereo unspecified),inconclusive: 18% [activator],–
CCNc1ncc2nc(-c3cccs3)c(=O)n(Cc3ccc(F)cc3)c2n1,–,"inconclusive [activator, single point]"
CCCCOCCCn1c(-c2ccco2)nc2nc3ccccc3nc21,–,"inconclusive [activator, single point]"
CCNc1ncc2nc(-c3ccc(F)cc3)c(=O)n(-c3ccc(OC)cc3)c2n1,–,"inconclusive [activator, partial curve]"
CCOc1cc(C2NC(=O)N(C)C(C)=C2C(=O)OC)cc(Br)c1O (stereo unspecified),inconclusive: 14.9% [activator],–
Cc1c(=O)n(OCc2ccccn2)c2ccccc2[n+]1[O-],inconclusive: 15.8% [activator],–
CCCn1c(SCC(=O)Nc2nc3c(s2)CCCC3)nc2c1c(=O)n(C)c(=O)n2C,–,inactive
O=C(Nc1ncc(Cc2ccccc2)s1)C1CCCO1 (stereo unspecified),–,inactive
CC(C)(C)NC(=O)NC(=O)COc1ccccc1C#N,–,inactive
C=Cc1c(C)c2cc3nc(cc4[nH]c(cc5nc(cc1[nH]2)C(C)=C5CCC(=O)O)c(CCC(=O)OC)c4C)[C@@]1(C)C3=CC=C(C(=O)OC)[C@H]1C(=O)OC (tested in a mixture with another compound),–,inactive

SMILES,activation,Potency
O=C(Cn1cnnn1)OCC(=O)c1ccc(Cl)s1,–,active: 12.6 µM
CN1CCCN(C(=O)Cc2c(Cl)cccc2Cl)c2nc3ccccc3nc21,–,active: 10 µM
CNc1ncnc(Sc2nc(N)nc3nc[nH]c23)c1[N+](=O)[O-],–,"inconclusive [activator, partial curve]"
CN1CCN(c2ncc3nc(-c4cn(C)c5ccccc45)c(=O)n(Cc4cccs4)c3n2)CC1,–,"inconclusive [activator, single point]"
CCOCCCNc1ncnc2c1[nH]c1ccccc12,"inactive: 3.65% [at 0.369 µM, normalised to 500 nM splice-correcting PNA]",–
O=c1cnc2cncnc2n1Cc1ccccc1,–,"inconclusive [activator, single point]"
COc1ccc(OC)c(-c2cc(C(=O)N3CCN(c4ncccn4)CC3)c3ccccc3n2)c1,–,inactive
COc1ccc(-c2nc3cnc(N4CCN(C)CC4)nc3n(Cc3cccs3)c2=O)cc1,–,"inconclusive [activator, single point]"
CCCC[C@@H]1C[C@H]1C(NC(=O)c1ccco1)c1ccc(C(=O)OC)cc1 (stereo partly specified),–,inactive
CCc1cccc(NC(=O)c2ccc(NS(=O)(=O)c3c(C)noc3C)cc2)c1,–,inactive
Cc1occc1-c1nnc(SCC(=O)Nc2ccccc2)n1Cc1ccccc1,–,inactive
CCN1c2ccccc2NC2C1C(C(C)=O)C(=O)N2c1ccc(Cl)cc1 (stereo unspecified),–,"inconclusive [activator, single point]"
c1cnc2c(SCc3ccc(-c4nnco4)cc3)cccc2c1,–,inactive
Cc1c(=O)n(OCc2ccccc2)c2ccccc2[n+]1[O-],–,"inconclusive [activator, single point]"
N#Cc1c(C(F)(F)F)cc(-c2ccccc2)nc1SCc1nc(N)nc(N2CCOCC2)n1,–,active: 10 µM
CCNc1ncc2ncc(=O)n(Cc3cccs3)c2n1,–,inactive
COc1cccc(C2NC(=O)NC(C)=C2C(=O)Nc2cccc(C)c2C)c1 (stereo unspecified),–,inactive
IC(I)I,–,inactive
CN(C)c1ccc(/C=C/C(O)=C2/C(=O)N(C)C3(C)CC2c2ccccc2O3)cc1 (stereo unspecified),–,"inconclusive [activator, single point]"
O=C(O)c1cc(NCc2cccs2)ccc1N1CCOCC1,"inactive: 6.32% [at 1.84 µM, normalised to 500 nM splice-correcting PNA]",–
O=C(O)CC[P+](c1ccccc1)(c1ccccc1)c1ccccc1,"inactive: 3.94% [at 9.22 µM, normalised to 500 nM splice-correcting PNA]",–
c1cncc(-c2nc(NCc3ccco3)c3ccccc3n2)c1,–,"inconclusive [activator, single point]"
O=C(c1ccccc1)C1C(=O)c2ccccc2C1=O,–,"inconclusive [activator, single point]"
